From paper PMC9724675 come the findings set out here.

These are yes or no findings as the source states them, for the method shown. Binding seen in cells or lysates may run through a third protein. Some results given as binding are weak or reduced against the parent protein; the word gives no strength. Tags and fused reporters may be left off the sequences shown.

The target in assay [1] is T1, POPDC2 fused to a half of Venus (BiFC construct) (mouse) (UniProt Q9ES82).
T1 sequence: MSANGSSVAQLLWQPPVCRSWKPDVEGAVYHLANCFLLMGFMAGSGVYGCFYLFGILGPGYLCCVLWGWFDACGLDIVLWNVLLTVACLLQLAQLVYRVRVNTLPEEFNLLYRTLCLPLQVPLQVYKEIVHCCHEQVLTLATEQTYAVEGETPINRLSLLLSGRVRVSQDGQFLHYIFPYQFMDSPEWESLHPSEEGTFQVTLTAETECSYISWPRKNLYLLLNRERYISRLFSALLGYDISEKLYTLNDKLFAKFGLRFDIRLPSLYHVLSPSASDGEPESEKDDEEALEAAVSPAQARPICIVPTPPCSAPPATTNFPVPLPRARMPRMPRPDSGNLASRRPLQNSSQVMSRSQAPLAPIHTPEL
The assay can be described thus: split reporter; BiFC (split Venus, VN and VC) in COS-7 cells, which lack detectable endogenous POPDC proteins; plate reader, normalised to DAPI.

Assay [2] deals with T2, POPDC1-VN and POPDC1-VC (mouse POPDC1 fused to a half of Venus) (mouse) (UniProt Q9ES83).
T2 sequence: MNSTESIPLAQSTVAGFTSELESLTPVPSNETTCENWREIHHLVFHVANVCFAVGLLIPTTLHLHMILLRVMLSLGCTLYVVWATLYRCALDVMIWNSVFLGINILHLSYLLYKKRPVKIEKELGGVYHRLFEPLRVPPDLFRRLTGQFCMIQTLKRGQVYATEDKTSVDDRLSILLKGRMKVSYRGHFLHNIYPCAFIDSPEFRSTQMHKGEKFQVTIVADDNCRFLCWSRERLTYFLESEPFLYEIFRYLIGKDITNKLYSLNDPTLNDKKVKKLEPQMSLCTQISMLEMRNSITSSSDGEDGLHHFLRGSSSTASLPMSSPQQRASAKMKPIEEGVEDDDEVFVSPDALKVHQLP
Described as above.

Assay [3] has as its target T3, POPDC3 fused to a half of Venus (BiFC construct) (mouse) (UniProt Q9ES81).
T3 sequence: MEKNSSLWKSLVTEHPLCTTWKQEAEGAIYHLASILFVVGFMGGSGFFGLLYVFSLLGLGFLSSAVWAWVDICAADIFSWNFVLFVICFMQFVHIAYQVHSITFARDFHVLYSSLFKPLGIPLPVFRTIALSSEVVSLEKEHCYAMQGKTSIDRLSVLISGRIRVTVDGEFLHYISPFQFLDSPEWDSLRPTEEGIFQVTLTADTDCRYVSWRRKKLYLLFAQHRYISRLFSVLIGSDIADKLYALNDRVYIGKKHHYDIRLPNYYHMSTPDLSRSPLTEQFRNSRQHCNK
The assay is described as above.

Assay [4] concerns the target T2, POPDC1-VN and POPDC1-VC (mouse POPDC1 fused to a half of Venus) (mouse). The assay can be described thus: split reporter; BiFC (split Venus, VN and VC) in HEK293 cells, which express endogenous POPDC1 and POPDC2; plate reader and live-cell imaging; with or without ISO (10 μM, 10 min, 37°C; dose-response).
The target of assay [5] is T4, endogenous POPDC1 of neonatal rat cardiomyocytes (rat (endogenous in neonatal cardiomyocytes)) (UniProt Q3BCU4).
T4 sequence: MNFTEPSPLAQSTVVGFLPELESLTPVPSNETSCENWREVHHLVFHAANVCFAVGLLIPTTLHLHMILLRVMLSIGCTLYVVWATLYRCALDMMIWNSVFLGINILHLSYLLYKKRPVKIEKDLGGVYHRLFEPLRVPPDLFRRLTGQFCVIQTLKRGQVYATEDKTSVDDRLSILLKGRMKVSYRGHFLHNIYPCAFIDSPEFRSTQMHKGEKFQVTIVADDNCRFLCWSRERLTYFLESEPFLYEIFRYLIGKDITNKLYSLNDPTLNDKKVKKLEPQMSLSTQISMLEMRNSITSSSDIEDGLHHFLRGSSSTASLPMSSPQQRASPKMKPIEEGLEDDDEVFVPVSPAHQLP
The experiment in a line: proximity ligation; neonatal rat cardiomyocytes infected with adenovirus for Flag-tagged AC9 or Flag-tagged GFP; antibodies against Flag and endogenous POPDC1, POPDC2 or Gβγ.

B1: AC9-VN and AC9-VC (AC9 fused to the N-terminal or C-terminal half of Venus) (enzyme, UniProt O60503 1-1353)
chain: MASPPHQQLLHHHSTEVSCDSSGDSNSVRVKINPKQLSSNSHPKHCKYSISSSCSSSGDSGGVPRRVGGGGRLRRQKKLPQLFERASSRWWDPKFDSVNLEEACLERCFPQTQRRFRYALFYIGFACLLWSIYFAVHMRSRLIVMVAPALCFLLVCVGFFLFTFTKLYARHYAWTSLALTLLVFALTLAAQFQVLTPVSGRGDSSNLTATARPTDTCLSQVGSFSMCIEVLFLLYTVMHLPLYLSLCLGVAYSVLFETFGYHFRDEACFPSPGAGALHWELLSRGLLHGCIHAIGVHLFVMSQVRSRSTFLKVGQSIMHGKDLEVEKALKERMIHSVMPRIIADDLMKQGDEESENSVKRHATSSPKNRKKKSSIQKAPIAFRPFKMQQIEEVSILFADIVGFTKMSANKSAHALVGLLNDLFGRFDRLCEETKCEKISTLGDCYYCVAGCPEPRADHAYCCIEMGLGMIKAIEQFCQEKKEMVNMRVGVHTGTVLCGILGMRRFKFDVWSNDVNLANLMEQLGVAGKVHISEATAKYLDDRYEMEDGKVIERLGQSVVADQLKGLKTYLISGQRAKESRCSCAEALLSGFEVIDGSQVSSGPRGQGTASSGNVSDLAQTVKTFDNLKTCPSCGITFAPKSEAGAEGGAPQNGCQDEHKNSTKASGGPNPKTQNGLLSPPQEEKLTNSQTSLCEILQEKGRWAGVSLDQSALLPLRFKNIREKTDAHFVDVIKEDSLMKDYFFKPPINQFSLNFLDQELERSYRTSYQEEVIKNSPVKTFASPTFSSLLDVFLSTTVFLTLSTTCFLKYEAATVPPPPAALAVFSAALLLEVLSLAVSIRMVFFLEDVMACTKRLLEWIAGWLPRHCIGAILVSLPALAVYSHVTSEYETNIHFPVFTGSAALIAVVHYCNFCQLSSWMRSSLATVVGAGPLLLLYVSLCPDSSVLTSPLDAVQNFSSERNPCNSSVPRDLRRPASLIGQEVVLVFFLLLLLVWFLNREFEVSYRLHYHGDVEADLHRTKIQSMRDQADWLLRNIIPYHVAEQLKVSQTYSKNHDSGGVIFASIVNFSEFYEENYEGGKECYRVLNELIGDFDELLSKPDYSSIEKIKTIGATYMAASGLNTAQAQDGSHPQEHLQILFEFAKEMMRVVDDFNNNMLWFNFKLRVGFNHGPLTAGVIGTTKLLYDIWGDTVNIASRMDTTGVECRIQVSEESYRVLSKMGYDFDYRGTVNVKGKGQMKTYLYPKCTDHRVIPQHQLSISPDIRVQVDGSIGRSPTDEIANLVPSVQYVDKTSLGSDSSTQAKDAHLSPKRPWKEPVKAEERGRFGKAIEKDDCDETGIEEANELTKLNVSKSV
As to B1, the binding result in assay [1], in assay [2], in assay [3] and in assay [4] was “binds” throughout.

B2: Flag-tagged AC9, adenovirally expressed (enzyme, UniProt O60503 1-1353)
chain: B1 chain
Regarding B2, the binding entry in assay [5] is listed as “binds”.
